# Laboratory results reported in publication PMC4336329 (PLoS ONE, 2015).
# About 14,000 (4.5%) of roughly 310,000 compounds showed an effect of 50% or more. The effect is printed as a negative number. Some of the results follow.
# Target: human ether-à-go-go-related gene (hERG) potassium channel (human, UniProt Q12809)
# Assay: primary screen, population patch clamp on CHO cells stably expressing hERG
# 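Also: peak tail current of the secondary pulse compared with the same well before compound.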
# Chain of human ether-à-go-go-related gene (hERG) potassium channel (Q12809 whole entry, looked up): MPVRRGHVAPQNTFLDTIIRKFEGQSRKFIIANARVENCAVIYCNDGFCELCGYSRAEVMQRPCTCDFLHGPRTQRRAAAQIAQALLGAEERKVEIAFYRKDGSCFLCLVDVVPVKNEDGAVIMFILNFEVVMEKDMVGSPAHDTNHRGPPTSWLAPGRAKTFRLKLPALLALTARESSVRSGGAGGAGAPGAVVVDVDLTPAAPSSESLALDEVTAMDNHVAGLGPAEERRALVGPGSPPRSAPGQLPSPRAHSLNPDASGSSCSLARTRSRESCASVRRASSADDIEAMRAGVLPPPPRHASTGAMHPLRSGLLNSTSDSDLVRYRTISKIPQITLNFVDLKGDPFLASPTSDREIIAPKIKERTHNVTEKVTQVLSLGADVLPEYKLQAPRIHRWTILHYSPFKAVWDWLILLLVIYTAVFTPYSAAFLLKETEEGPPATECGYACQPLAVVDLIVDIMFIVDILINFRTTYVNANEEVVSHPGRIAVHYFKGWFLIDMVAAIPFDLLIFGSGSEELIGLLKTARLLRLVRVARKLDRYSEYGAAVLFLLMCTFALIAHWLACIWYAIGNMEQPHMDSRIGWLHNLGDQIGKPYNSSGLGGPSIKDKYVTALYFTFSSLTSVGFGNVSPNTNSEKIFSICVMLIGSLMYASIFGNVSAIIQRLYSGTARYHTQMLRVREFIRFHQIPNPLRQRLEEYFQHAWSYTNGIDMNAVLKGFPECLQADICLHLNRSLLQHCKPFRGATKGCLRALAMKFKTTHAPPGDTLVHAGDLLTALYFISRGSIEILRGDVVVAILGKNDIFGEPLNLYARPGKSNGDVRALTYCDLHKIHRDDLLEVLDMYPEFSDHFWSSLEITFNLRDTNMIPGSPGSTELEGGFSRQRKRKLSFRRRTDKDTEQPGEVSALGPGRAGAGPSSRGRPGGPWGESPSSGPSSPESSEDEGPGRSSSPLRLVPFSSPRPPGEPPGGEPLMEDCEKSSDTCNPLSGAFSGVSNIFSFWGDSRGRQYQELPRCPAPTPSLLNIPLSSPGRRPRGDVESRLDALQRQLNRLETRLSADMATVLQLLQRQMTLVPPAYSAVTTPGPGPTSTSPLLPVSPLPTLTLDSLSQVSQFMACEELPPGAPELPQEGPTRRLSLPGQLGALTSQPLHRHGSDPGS
row,SMILES,"hERG current change (%, negative = inhibition) at 10uM [%]"
1,S=C(NC1CCCCC1)c1ccc2c(c1)OCO2,4.84
2,CCCS(=O)(=O)c1nc(S(=O)(=O)c2ccc(C)cc2)c(N2CCCC(C)C2)s1 (stereo not drawn),-0.281
3,O=C(NNC(=O)c1ccccc1[N+](=O)[O-])c1ccco1,17.2
4,O=C(NCc1ccccn1)c1ccc2c(c1)N(Cc1ccccc1)CCS2,-15.4
5,COc1ccc(Br)cc1C(=O)Nc1nnn(C)n1,3.43
6,Cc1ccc(C)c(OCC(=O)Nc2nc3ccc([N+](=O)[O-])cc3s2)c1C,2.02
7,Cc1c(N2C(=O)SC(CC(=O)O)C2=O)c(=O)n(-c2ccccc2)n1C (stereo not drawn),3.72
8,CC(C)OC(=O)c1ccccc1C(=O)c1ccc(N)c([N+](=O)[O-])c1,6.68
9,CCCCN(C)CCCNC(=O)CCn1nc(-c2ccccc2)ccc1=O,-52.9
10,CC1CCN(C(=O)c2[nH]cnc2C(=O)Nc2nccs2)CC1,5.22
11,Cc1onc(-c2ccccc2)c1C(=O)OCC(=O)NC(=O)c1ccccc1,-31.1
12,C=CCn1c(=O)c2c(nc3n2CCCN3CCc2ccc(OC)c(OC)c2)n(C)c1=O,-79.6
13,COc1ccc(-c2cn(-c3ccc(C)cc3C)c(=S)[nH]2)cc1OC,0.968
14,Cc1cc2c(s1)c1cnn(CC(=O)NCCc3ccccc3)c(=O)c1n2C,-9.56
15,O=C(N/N=C/c1cc([N+](=O)[O-])ccc1O)C1C2CCCCC21 (stereo not drawn),3.28
16,Cc1ccc(C)c(N=Nc2ccc(O)c3ncccc23)c1,21.3
17,O=c1[nH]c(=O)n(Cc2ccco2)c(O)c1C=NCc1cccs1,-15.3
18,CCN(CC(=O)NCc1ccc(F)cc1)C(=O)/C=C/c1ccc(S(=O)(=O)N(CC)CC)cc1,-19.1
19,COc1cccc(Cn2nnc(C(=O)NCc3ccc(F)cc3)c2N)c1,-2.25
20,Cc1ccccc1C(=O)Nc1ccc2nc3n(c(=O)c2c1)CCC3,-9.1
21,O=C(COC(=O)CCSc1ccccc1)NCc1ccccc1,10.2
22,Cc1cccc(C(=O)NC2CCN(S(=O)(=O)c3ccccc3F)CC2)c1,10
23,CC1Oc2ccccc2N(Cc2ccccc2Cl)C1=O (stereo not drawn),-0.33
24,CS(=O)(=O)c1ccccc1-c1nc(-c2cc(C(F)(F)F)cc(C(F)(F)F)c2)no1,4.06
